Reference: the supplement of paper PMC10369915
Some of the results follow. Rule as the data show it: active = 3.2 or more and inactive = the rest. The signal is at background level for most entries.

The binders below were run against SHP2 C-SH2 domain E139D (assay: enrichment score (SH2-bound / input frequency) (ratio); bacterial display of known human phosphotyrosine sites (pTyr-Var adds point mutants) read by sequencing; higher = stronger binding; tyrosines were phosphorylated by kinases first). Details: peptide library: pTyr-Var.
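Also: displayed peptides selected on beads carrying the immobilized SH2 domain, with library peptides lacking any tyrosine serving as negative controls.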

Enrichment score, inactive:
GVRLYYRVMES [RB1_Y454] 0.828
GVRLYYRVRES [RB1_Y454_M457R] 0.239
GVRLFYRVMES [RB1_Y454_YF] 1.12
PGGKIYISPLK [RB1_Y805_N803K] 1.39
STSKTYVISRT [RBBP6_Y87] 0.523
STSKTYVISQT [RBBP6_Y87_R91Q] 0.818
SLALFYRNVFH [RBL1_Y792_K794N_YF] 0.49
FYRKVYHLASV [RBL1_Y796] 1.02
VVTFSYKPAGN [RBL2_Y544_P547A] 1.4
YRDMDYRSYPR [RBM10_Y41] 0.862
YRDMDYRSYPH [RBM10_Y41_R46H] 0.953
FRDMDYRSFPR [RBM10_Y41_YF] 0.86
MDYRSYPHEYG [RBM10_Y44_R46H] 0.743
MDFRSYPREFG [RBM10_Y44_YF] 0.733
SYPREYGSQEG [RBM10_Y48] 0.522
SFPHEYGSQEG [RBM10_Y48_R46H_YF] 0.862
ADRTRYSAFGG [RBM4_Y361_A359T] 0.65
IYRASYVPFAA [RBM47_Y541_G538R] 0.751

What follows are binders tested against SHP2 C-SH2 domain wild-type in the same assay as above. Details: peptide library: pTyr-Var.

Enrichment score, inactive:
GVRLYYRVMES [RB1_Y454] 1.17
GVRLYYRVRES [RB1_Y454_M457R] 0.283
GVRLFYRVMES [RB1_Y454_YF] 1.04
PGGKIYISPLK [RB1_Y805_N803K] 2.28
STSKTYVISRT [RBBP6_Y87] 0.43
STSKTYVISQT [RBBP6_Y87_R91Q] 0.688
SLALFYRNVFH [RBL1_Y792_K794N_YF] 0.436
FYRKVYHLASV [RBL1_Y796] 0.799
VVTFSYKPAGN [RBL2_Y544_P547A] 1.57
YRDMDYRSYPR [RBM10_Y41] 0.743
YRDMDYRSYPH [RBM10_Y41_R46H] 0.728
FRDMDYRSFPR [RBM10_Y41_YF] 0.749
MDYRSYPHEYG [RBM10_Y44_R46H] 0.6
MDFRSYPREFG [RBM10_Y44_YF] 0.735
SYPREYGSQEG [RBM10_Y48] 0.528
SFPHEYGSQEG [RBM10_Y48_R46H_YF] 0.56
ADRTRYSAFGG [RBM4_Y361_A359T] 0.579
IYRASYVPFAA [RBM47_Y541_G538R] 0.749

The binders below were run against SHP2 N-SH2 domain L43F in the same assay as above. Details: peptide library: pTyr-Var.

Enrichment score, inactive:
GVRLYYRVMES [RB1_Y454] 0.971
GVRLYYRVRES [RB1_Y454_M457R] 0.206
GVRLFYRVMES [RB1_Y454_YF] 0.962
PGGKIYISPLK [RB1_Y805_N803K] 1.5
STSKTYVISRT [RBBP6_Y87] 0.54
STSKTYVISQT [RBBP6_Y87_R91Q] 0.733
SLALFYRNVFH [RBL1_Y792_K794N_YF] 0.439
FYRKVYHLASV [RBL1_Y796] 0.782
VVTFSYKPAGN [RBL2_Y544_P547A] 1.84
YRDMDYRSYPR [RBM10_Y41] 0.724
YRDMDYRSYPH [RBM10_Y41_R46H] 0.784
FRDMDYRSFPR [RBM10_Y41_YF] 0.767
MDYRSYPHEYG [RBM10_Y44_R46H] 0.682
MDFRSYPREFG [RBM10_Y44_YF] 0.852
SYPREYGSQEG [RBM10_Y48] 0.538
SFPHEYGSQEG [RBM10_Y48_R46H_YF] 0.507
ADRTRYSAFGG [RBM4_Y361_A359T] 0.535
IYRASYVPFAA [RBM47_Y541_G538R] 0.824

Each binder was assayed against SHP2 N-SH2 domain T42A in the same assay as above. Details: peptide library: pTyr-Var.

Enrichment score, inactive:
GVRLYYRVMES [RB1_Y454] 0.679
GVRLYYRVRES [RB1_Y454_M457R] 0.276
GVRLFYRVMES [RB1_Y454_YF] 0.848
PGGKIYISPLK [RB1_Y805_N803K] 1.16
STSKTYVISRT [RBBP6_Y87] 0.494
STSKTYVISQT [RBBP6_Y87_R91Q] 0.632
SLALFYRNVFH [RBL1_Y792_K794N_YF] 0.396
FYRKVYHLASV [RBL1_Y796] 0.628
VVTFSYKPAGN [RBL2_Y544_P547A] 2.1
YRDMDYRSYPR [RBM10_Y41] 0.744
YRDMDYRSYPH [RBM10_Y41_R46H] 0.583
FRDMDYRSFPR [RBM10_Y41_YF] 0.641
MDYRSYPHEYG [RBM10_Y44_R46H] 0.58
MDFRSYPREFG [RBM10_Y44_YF] 0.665
SYPREYGSQEG [RBM10_Y48] 0.443
SFPHEYGSQEG [RBM10_Y48_R46H_YF] 0.63
ADRTRYSAFGG [RBM4_Y361_A359T] 0.484
IYRASYVPFAA [RBM47_Y541_G538R] 0.785

Each binder was assayed against SHP2 N-SH2 domain T52S in the same assay as above. Details: peptide library: pTyr-Var.

Enrichment score, inactive:
GVRLYYRVMES [RB1_Y454] 0.818
GVRLYYRVRES [RB1_Y454_M457R] 0.267
GVRLFYRVMES [RB1_Y454_YF] 0.893
PGGKIYISPLK [RB1_Y805_N803K] 1.27
STSKTYVISRT [RBBP6_Y87] 0.509
STSKTYVISQT [RBBP6_Y87_R91Q] 0.639
SLALFYRNVFH [RBL1_Y792_K794N_YF] 0.463
FYRKVYHLASV [RBL1_Y796] 0.839
VVTFSYKPAGN [RBL2_Y544_P547A] 1.83
YRDMDYRSYPR [RBM10_Y41] 0.822
YRDMDYRSYPH [RBM10_Y41_R46H] 0.68
FRDMDYRSFPR [RBM10_Y41_YF] 0.878
MDYRSYPHEYG [RBM10_Y44_R46H] 0.587
MDFRSYPREFG [RBM10_Y44_YF] 0.729
SYPREYGSQEG [RBM10_Y48] 0.514
SFPHEYGSQEG [RBM10_Y48_R46H_YF] 0.761
ADRTRYSAFGG [RBM4_Y361_A359T] 0.575
IYRASYVPFAA [RBM47_Y541_G538R] 0.882

These binders were tested against SHP2 N-SH2 domain wild-type in the same assay as above. Details: peptide library: pTyr-Var.

Enrichment score, inactive:
GVRLYYRVMES [RB1_Y454] 1.1
GVRLYYRVRES [RB1_Y454_M457R] 0.196
GVRLFYRVMES [RB1_Y454_YF] 1.11
PGGKIYISPLK [RB1_Y805_N803K] 1.55
STSKTYVISRT [RBBP6_Y87] 0.627
STSKTYVISQT [RBBP6_Y87_R91Q] 0.771
SLALFYRNVFH [RBL1_Y792_K794N_YF] 0.609
FYRKVYHLASV [RBL1_Y796] 1.03
VVTFSYKPAGN [RBL2_Y544_P547A] 1.32
YRDMDYRSYPR [RBM10_Y41] 0.944
YRDMDYRSYPH [RBM10_Y41_R46H] 0.687
FRDMDYRSFPR [RBM10_Y41_YF] 0.801
MDYRSYPHEYG [RBM10_Y44_R46H] 0.565
MDFRSYPREFG [RBM10_Y44_YF] 0.648
SYPREYGSQEG [RBM10_Y48] 0.692
SFPHEYGSQEG [RBM10_Y48_R46H_YF] 0.447
ADRTRYSAFGG [RBM4_Y361_A359T] 0.759
IYRASYVPFAA [RBM47_Y541_G538R] 0.873
